{"source": "the supplement of paper PMC3334620", "note": "Over roughly 33,000 sequences, “E-score (-0.5 to 0.5)” has its median near -0.012; the highest 2% begin near 0.27. This is one part of the list."}
{"target": "T1, Vhr1 (UniProt P40522)", "T1 sequence": "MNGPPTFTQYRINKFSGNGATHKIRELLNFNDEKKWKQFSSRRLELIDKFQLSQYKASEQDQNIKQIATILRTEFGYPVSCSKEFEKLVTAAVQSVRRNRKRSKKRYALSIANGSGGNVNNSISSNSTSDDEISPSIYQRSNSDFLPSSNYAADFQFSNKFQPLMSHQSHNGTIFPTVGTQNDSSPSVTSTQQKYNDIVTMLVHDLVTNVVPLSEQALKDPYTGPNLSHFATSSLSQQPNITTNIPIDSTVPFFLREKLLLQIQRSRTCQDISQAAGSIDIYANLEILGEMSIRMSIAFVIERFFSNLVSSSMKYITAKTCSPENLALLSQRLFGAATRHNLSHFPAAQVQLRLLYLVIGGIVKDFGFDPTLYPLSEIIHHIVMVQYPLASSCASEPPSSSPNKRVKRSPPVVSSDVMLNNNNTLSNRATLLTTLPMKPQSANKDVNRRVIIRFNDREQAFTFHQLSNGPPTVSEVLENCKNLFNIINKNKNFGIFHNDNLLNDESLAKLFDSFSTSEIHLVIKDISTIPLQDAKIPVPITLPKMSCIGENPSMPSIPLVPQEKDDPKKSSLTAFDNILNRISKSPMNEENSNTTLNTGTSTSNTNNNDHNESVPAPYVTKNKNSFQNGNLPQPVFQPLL", "assay": "PBM E-score (8-mer binding enrichment) (E-score (-0.5 to 0.5)); higher = stronger / more preferred TF binding; most listed sequences are background and not binding sites", "conditions": "protein concentration: 200 nM; construct: GST-full length", "in_short": "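Using PURExpress in vitro transcription/translation, GST-tagged yeast transcription factors were made in full-length or DNA-binding-domain form. These were applied at about 100-200 nM to double-stranded universal all-10-mer Agilent arrays, and bound protein was detected with fluorescent anti-GST. Scans were normalised with masliner before the Universal PBM Analysis Suite assigned E-scores to ungapped eight-base words pooled with their reverse complements.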"}
{"sequence": "AATTTCCA", "PBM E-score": -0.0561}
{"sequence": "GGTAGGCA", "PBM E-score": -0.0869}
{"sequence": "AAAGGTGC", "PBM E-score": -0.162}
{"sequence": "GGGACTAA", "PBM E-score": -0.209}
{"sequence": "AGCTGCTC", "PBM E-score": -0.137}
{"sequence": "TAGTGAAA", "PBM E-score": -0.0264}
{"sequence": "CGTACTAG", "PBM E-score": 0.0261}
{"sequence": "GGACCTTA", "PBM E-score": -0.232}
{"sequence": "CCCTAGGC", "PBM E-score": -0.149}
{"sequence": "ATGACCGA", "PBM E-score": -0.0105}
{"sequence": "CTACCCGA", "PBM E-score": -0.00582}
{"sequence": "AGAGGCGG", "PBM E-score": 0.0282}
{"sequence": "AAACTCTG", "PBM E-score": -0.0552}
{"sequence": "CGGGCACC", "PBM E-score": 0.0253}
{"sequence": "AAAAGTTC", "PBM E-score": -0.284}
{"sequence": "ATTTTCTA", "PBM E-score": -0.0622}
{"sequence": "GGTACCAA", "PBM E-score": -0.037}
{"sequence": "GTTAGTTA", "PBM E-score": 0.137}
{"sequence": "AATAGATG", "PBM E-score": 0.0664}
{"sequence": "CGTGCTGC", "PBM E-score": 0.0243}
{"sequence": "GCCGAGCC", "PBM E-score": 0.00377}
{"sequence": "ACACTCGA", "PBM E-score": 0.149}
{"sequence": "CACTGTCC", "PBM E-score": -0.0625}
{"sequence": "AACTGATA", "PBM E-score": 0.171}
{"sequence": "CTGCAACC", "PBM E-score": 0.0785}
{"sequence": "CATTTGAA", "PBM E-score": -0.0815}
{"sequence": "CTCTCCGC", "PBM E-score": -0.0827}
{"sequence": "GTACTTTA", "PBM E-score": -0.11}
{"sequence": "CCCAGCCG", "PBM E-score": -0.064}
{"sequence": "CCGCTGGC", "PBM E-score": 0.00791}
{"sequence": "GAAACACC", "PBM E-score": 0.215}
{"sequence": "CATAAGGG", "PBM E-score": 0.039}
{"sequence": "GCCCACTA", "PBM E-score": -0.0173}
{"sequence": "AGCCTATA", "PBM E-score": -0.0617}
{"sequence": "AGTCCCCG", "PBM E-score": 0.0704}
{"sequence": "AGTGAGAT", "PBM E-score": 0.168}
{"sequence": "AATTGATC", "PBM E-score": -0.0596}
{"sequence": "CCCTTGCG", "PBM E-score": -0.156}
{"sequence": "ATGCGTAA", "PBM E-score": -0.0945}
{"sequence": "TATACCCA", "PBM E-score": 0.0126}
{"sequence": "CGCAAGTC", "PBM E-score": -0.0294}
{"sequence": "AGTGTATC", "PBM E-score": 0.169}
{"sequence": "AGGGTCGG", "PBM E-score": 0.00426}
{"sequence": "AGAGCACT", "PBM E-score": -0.0529}
{"sequence": "CGGGTATA", "PBM E-score": 0.0977}
{"sequence": "CCCAGCTA", "PBM E-score": -0.0293}
{"sequence": "GCTCATCC", "PBM E-score": 0.0555}
{"sequence": "AAACCGCC", "PBM E-score": 0.156}
{"sequence": "CGCACGTA", "PBM E-score": -0.0929}
{"sequence": "ACGCCCCC", "PBM E-score": -0.143}
{"sequence": "CAGACGTA", "PBM E-score": -0.13}
{"sequence": "GACCAAGA", "PBM E-score": -0.00356}
{"sequence": "TTCACAAA", "PBM E-score": -0.203}
{"sequence": "CAGGGATA", "PBM E-score": -0.0757}
{"sequence": "ACCATTTA", "PBM E-score": 0.0419}
{"sequence": "CTGCGGTA", "PBM E-score": 0.129}
{"sequence": "CCAATGCG", "PBM E-score": -0.066}
{"sequence": "GTTGAAGA", "PBM E-score": -0.13}
{"sequence": "TTACCTAA", "PBM E-score": -0.0877}
{"sequence": "GAATATTA", "PBM E-score": 0.212}
{"sequence": "GGGCGTAC", "PBM E-score": -0.0693}
{"sequence": "AGACGACA", "PBM E-score": -0.0527}
{"sequence": "ACCATAAG", "PBM E-score": -0.127}
{"sequence": "ATATCTGA", "PBM E-score": 0.15}
{"sequence": "GAGATTGA", "PBM E-score": -0.0632}
{"sequence": "CATTCCCA", "PBM E-score": -0.0756}
{"sequence": "ATGCCGCA", "PBM E-score": -0.0531}
{"sequence": "ACCTGGAA", "PBM E-score": 0.059}
{"sequence": "ATTCTAAG", "PBM E-score": -0.137}
{"sequence": "AATGTCTC", "PBM E-score": 0.137}
{"sequence": "AACAATGA", "PBM E-score": 0.0764}
{"sequence": "CCCTCCCC", "PBM E-score": 0.253}
{"sequence": "GAAGAGGA", "PBM E-score": -0.197}
{"sequence": "ACTCTTCT", "PBM E-score": -0.00346}
{"sequence": "AGGTCCGA", "PBM E-score": 0.0653}
{"sequence": "CTAGCTCC", "PBM E-score": -0.0863}
{"sequence": "CCTCAAAC", "PBM E-score": 0.0109}
{"sequence": "CCACCCCG", "PBM E-score": 0.206}
{"sequence": "AGGGACAG", "PBM E-score": -0.195}
{"sequence": "CGCCCAAC", "PBM E-score": 0.169}
{"sequence": "CAATGCGA", "PBM E-score": 0.159}
{"sequence": "ACCGCTGG", "PBM E-score": -0.0773}
{"sequence": "CCCGCGCC", "PBM E-score": 0.12}
{"sequence": "AATTAGCG", "PBM E-score": 0.0239}
{"sequence": "AGAACGTA", "PBM E-score": 0.00487}
{"sequence": "ACTTCCAG", "PBM E-score": -0.171}
{"sequence": "AGTAGCCG", "PBM E-score": -0.0858}
{"sequence": "AGAGTAAT", "PBM E-score": 0.0347}
{"sequence": "TCATTGCA", "PBM E-score": 0.0595}
{"sequence": "TCTCAACA", "PBM E-score": 0.113}
{"sequence": "GAACTCGC", "PBM E-score": 0.0069}
{"sequence": "ACAGGTAG", "PBM E-score": -0.108}
{"sequence": "AGCAAGGA", "PBM E-score": -0.0877}
{"sequence": "AAAGTCAT", "PBM E-score": 0.256}
